Measurements: PMC6919601, “Identification of Plasmodium dipeptidyl aminopeptidase allosteric inhibitors by high throughput screening” (PLoS ONE, 2019)
Screen size: about 110,000 compounds; about 230 (0.21%) showed an effect of 50% or more. The list shows a part of the results.

target: DPAP1 (Plasmodium falciparum, UniProt Q8IIJ9); test: primary screen, percent inhibition; read by cleavage of a fluorogenic dipeptide substrate; higher = more effect of the substance; parameters: species or system P. falciparum D10 trophozoite lysates; single well
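Note: 30 min substrate incubation versus DMSO and 10 µM JCP410 controls.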

Chain of DPAP1 (Q8IIJ9 whole entry, looked up): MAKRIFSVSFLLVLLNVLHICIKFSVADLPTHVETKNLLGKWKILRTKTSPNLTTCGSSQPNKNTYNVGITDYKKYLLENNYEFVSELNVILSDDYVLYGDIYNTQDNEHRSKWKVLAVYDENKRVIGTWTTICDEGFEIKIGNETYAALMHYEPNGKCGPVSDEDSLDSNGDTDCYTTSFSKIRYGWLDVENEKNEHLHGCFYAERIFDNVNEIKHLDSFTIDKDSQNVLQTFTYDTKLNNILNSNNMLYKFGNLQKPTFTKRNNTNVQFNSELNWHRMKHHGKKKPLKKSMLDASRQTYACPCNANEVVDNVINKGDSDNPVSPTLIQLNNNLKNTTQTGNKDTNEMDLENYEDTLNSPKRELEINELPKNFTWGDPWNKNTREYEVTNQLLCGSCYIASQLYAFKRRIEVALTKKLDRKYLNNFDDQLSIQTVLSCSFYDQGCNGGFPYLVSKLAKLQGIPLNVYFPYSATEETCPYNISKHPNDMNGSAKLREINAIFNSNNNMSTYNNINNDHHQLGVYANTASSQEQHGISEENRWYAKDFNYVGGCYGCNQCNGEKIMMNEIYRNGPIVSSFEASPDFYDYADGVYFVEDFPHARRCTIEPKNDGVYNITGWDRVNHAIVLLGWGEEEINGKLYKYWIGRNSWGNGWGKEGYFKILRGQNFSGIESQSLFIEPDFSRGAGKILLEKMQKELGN

Compared with `COc1ccc(CSc2ncnc3c2sc2nc4c(cc23)COC(C)(C)C4)cc1`, `COc1ccc(-c2ccc3c(N)c(C(=O)NCCc4ccc(OC)c(OC)c4)sc3n2)cc1` is lower in “% Inhibition @ 10 uM” value: -4.85% for the first, -8.09% for the second.

First: Oc1c2c(nc3nc(COc4ccccc4)nn13)CCC2
Second: Nc1nc(N)nc(-c2ccccc2O)n1
The “% Inhibition @ 10 uM” value of the first is higher: 2.62% for the first, -6.11% for the second.

First: CCN(CCCNC(=O)Cn1ncc2c1-c1cc(C)ccc1OC2)Cc1ccccc1
Second: O=C(Cn1ncc2c1-c1ccccc1OC2)N1CCc2ccccc2C1
The “% Inhibition @ 10 uM” value of the first is lower: -0.0881% for the first, 2.6% for the second.

Going from `Cc1cc(N2CCCCC2)c(F)cc1C(=O)c1ccccc1` to `Cc1cccc(N2CCN(C(=O)c3cccnc3)CC2)c1C`, the “% Inhibition @ 10 uM” value falls from 4.26% to 1.64%.

First: Cc1ccc(CN2CCN(CC(=O)NC(C)c3ccc4c(c3)OCCO4)C2=O)cc1 (centres unmarked)
Second: COc1ccc(C(=O)Nc2ccc(CN3CCOCC3)cc2)cc1
The “% Inhibition @ 10 uM” value of the first is higher: 3.93% for the first, -3.09% for the second.

Compared with `COC(=O)c1conc1-c1ccccn1`, `CCOC(=O)N1CCN(Cc2nc(-c3ccccc3)no2)CC1` is higher in “% Inhibition @ 10 uM” value: -6.22% for the first, -1.81% for the second.

First: O=C(NCc1ccc(F)cc1)c1nc2ncccn2n1
Second: COc1ccc(CNC(=O)c2cncc(Br)c2)cc1
The “% Inhibition @ 10 uM” value of the first is lower: -3.53% for the first, 0.503% for the second.

Going from `O=C(CCc1ccc(S(=O)(=O)NCc2ccccc2)cc1)N1CCN(c2ccccc2)CC1` to `O=C(N/C(=C\c1cc(-c2ccccc2)nn1-c1ccccc1)C(=O)N1CCOCC1)c1ccc(Cl)cc1Cl`, the “% Inhibition @ 10 uM” value falls from 0.145% to -2.59%.

Going from `OCC1CCCN1Cc1ccc2c(c1)Cc1ccccc1-2` (centres unmarked) to `OCC1CCCN1C1CCN(CCc2ccccc2)CC1` (centres unmarked), the “% Inhibition @ 10 uM” value rises from -0.0648% to 10.2%.

First: O=C1N(c2ccccc2)C2CS(=O)(=O)CC2N1c1ccc(Br)cc1 (centres unmarked)
Second: O=C1CC(c2ccc(Cl)cc2)CC(=O)C1=CNCCN1CCN(C(=O)c2ccccc2)CC1 (centres unmarked)
The “% Inhibition @ 10 uM” value of the first is lower: -2.14% for the first, 1.37% for the second.

Compared with `O=C(/C(=C/c1ccc(F)cc1)c1nc2ccccc2[nH]1)c1ccccc1`, `CCN1C(C(=O)c2ccccc2)=C(NC(=O)COc2ccc(C)cc2)c2ccccc2S1(=O)=O` is lower in “% Inhibition @ 10 uM” value: 3.01% for the first, -3.63% for the second.

Compared with `O=C(Cc1cccs1)NCc1cccc(C(F)(F)F)c1`, `O=C(CCCc1c[nH]c2ccccc12)NCc1ccccc1C(F)(F)F` is lower in “% Inhibition @ 10 uM” value: 20.2% for the first, 0.238% for the second.

Compared with `CCN(CC)CCN1C(=O)C(O)=C(C(=O)c2ccc(C)cc2)C1c1ccc(F)cc1` (centres unmarked), `CCc1ccc(C2C3=C(O)CCCC3=NC(C)=C2C(=O)Nc2ccc(F)cc2)cc1` (centres unmarked) is higher in “% Inhibition @ 10 uM” value: 1.29% for the first, 4.11% for the second.

Compared with `COc1ccc(-c2cc(C)no2)cc1S(=O)(=O)N1CCC(c2ccccc2)C1` (centres unmarked), `COc1ccc(-c2nn(C)c(=O)c3ccccc23)cc1CNC(=O)c1ccccc1Cl` is higher in “% Inhibition @ 10 uM” value: -4.55% for the first, 2.1% for the second.

Compared with `O=C(Nc1ccccc1O)C1CCCCC1`, `CN(Cc1ccccc1)C(=O)c1ccc2c(c1)ncn2C1CCCC1` is higher in “% Inhibition @ 10 uM” value: -6.05% for the first, 0.387% for the second.

First: N#CCNC(=O)CCC1CCN(C(=O)OCC2c3ccccc3-c3ccccc32)CC1
Second: CCCn1c2ccccc2c2cnn(CC(=O)NC3CCN(Cc4ccccc4)CC3)c(=O)c21
The “% Inhibition @ 10 uM” value of the first is lower: 1.35% for the first, 3.05% for the second.

Going from `COc1ccc(CCNC2=C(Cl)C(=O)N(Cc3ccccc3)C2=O)cc1OC` to `COc1ccc(CCNC(=O)CN(C)S(=O)(=O)c2ccc3[nH]c4c(c3c2)CCCC4)cc1OC`, the “% Inhibition @ 10 uM” value rises from -4.33% to 2.97%.

First: CC1=C(C(=O)Nc2ccc(C)cc2)C(c2ccc(N(C)C)cc2)NC(S)=N1 (centres unmarked)
Second: O=C(CNS(=O)(=O)c1ccc(Br)cc1)Nc1ccc(F)cc1
The “% Inhibition @ 10 uM” value of the first is lower: -0.582% for the first, 2.6% for the second.

First: COCCCNC(=O)CN1C(=O)CSc2nc(C)cc(C)c21
Second: COCCCNc1ncnc2c1cnn2-c1cccc(C)c1
The “% Inhibition @ 10 uM” value of the first is lower: 1.03% for the first, 4.3% for the second.

First: Cn1c(=O)c2c(nc(OC/C=C\c3ccccc3)n2C)n(C)c1=O
Second: Cc1ccc(-c2nc3ccccc3n3cc4c(=O)n(C)c(=O)n(C)c4c23)cc1
The “% Inhibition @ 10 uM” value of the first is higher: 2.84% for the first, 2% for the second.

Compared with `CN(Cc1ccco1)C(=O)Cn1nc(Cc2cccnc2)c2ccccc2c1=O`, `O=C1c2n[nH]c(-c3ccccc3O)c2C(c2ccccc2F)N1Cc1ccco1` (centres unmarked) is higher in “% Inhibition @ 10 uM” value: -6.52% for the first, 0.366% for the second.

Going from `CCS(=O)(=O)c1c(S(=O)(=O)CC)c2c(C)cccn2c1C(=O)c1ccccc1` to `CCN(c1ccccc1)S(=O)(=O)c1cc(Cl)ccc1Cl`, the “% Inhibition @ 10 uM” value rises from -3.83% to -3.42%.

First: NC(=O)c1cccnc1Nc1ccc(Cl)c(C(F)(F)F)c1
Second: FC(F)(F)c1cc(-c2ccc(Cl)cc2)nc(-n2cccn2)n1
The “% Inhibition @ 10 uM” value of the first is higher: 0.83% for the first, -4.43% for the second.

First: COc1ccc(-n2c(O)cc(=O)[nH]c2=S)cc1
Second: COc1ccc(N2C(=O)CC(Sc3nccc(C)n3)C2=O)cc1 (centres unmarked)
The “% Inhibition @ 10 uM” value of the first is higher: 2.22% for the first, 0.727% for the second.

Compared with `Cc1ccc2[nH]c3c(c2c1)CCCC3N1CCOCC1` (centres unmarked), `Cc1ccc(/C=C2/SC(N3CCOCC3)=NC2=O)o1` is lower in “% Inhibition @ 10 uM” value: -1.08% for the first, -2.8% for the second.

Going from `CC(C)C[C@H](NC(=O)c1ccc(-c2ccc(S(C)(=O)=O)cc2)cc1)C(=O)NCC#N` to `CC(C)C[C@H](NC(=O)c1ccc(N2CCN(C)CC2)cc1)C(=O)N[C@@H](CCCCNC(=O)OCc1ccccc1)C(=O)O`, the “% Inhibition @ 10 uM” value falls from 15.9% to -4.72%.

First: CCc1cc(C)cc(OCC(O)Cn2c(C)[n+](C)c3ccccc32)c1 (centres unmarked)
Second: Cc1ccc2[nH]c(SCC(O)c3ccccc3)nc2c1 (centres unmarked)
The “% Inhibition @ 10 uM” value of the first is lower: -5.85% for the first, -1.31% for the second.

First: CC(=C1C(=O)c2ccccc2C1=O)N1CCN(CC/N=C(\C)C2=C(O)CC(C)(C)CC2=O)CC1
Second: CS(=O)(=O)CCC(C(=O)O)N1C(=O)c2ccccc2C1=O (centres unmarked)
The “% Inhibition @ 10 uM” value of the first is lower: -4.41% for the first, 2.76% for the second.

Compared with `CN1C(=O)/C(=C\c2ccncc2)S/C1=N/c1ccccc1`, `O=C(COc1ccccc1)N1CCN(Cc2ccncc2)CC1` is higher in “% Inhibition @ 10 uM” value: -10.2% for the first, 3.56% for the second.

Going from `O=C(NCC1COc2ccccc2O1)C1C2C=CC3(CN(Cc4cccs4)C(=O)C13)O2` (centres unmarked) to `CSc1ccc(CCNC(=O)c2ccc(CS(=O)c3ccccc3C)o2)cc1` (centres unmarked), the “% Inhibition @ 10 uM” value rises from -0.503% to 2.03%.

First: O=C(NCc1ccccc1Br)c1ccc2nc(N3CCOCC3)sc2c1
Second: COc1ccc2nc3sc(C(=O)N4CCN(Cc5ccc6c(c5)OCO6)CC4)cc3cc2c1
The “% Inhibition @ 10 uM” value of the first is lower: -5.15% for the first, -1.55% for the second.

First: CCN(CCN(C)C)Cc1cc(OC)c(OC)cc1[N+](=O)[O-]
Second: COc1cc(/C=C2\N=C(c3ccccc3C)OC2=O)cc(OC)c1OC
The “% Inhibition @ 10 uM” value of the first is higher: -2.34% for the first, -4.5% for the second.

Compared with `COc1cccc2c1OC(C)(C)N1N=C(c3cc(Cl)ccc3O)CC21` (centres unmarked), `CO/C(O)=C1\C(C)=Nc2nc(-c3ccccc3)nn2C1c1ccc(C)o1` (centres unmarked) is lower in “% Inhibition @ 10 uM” value: 1.76% for the first, -2.9% for the second.

First: Cc1cccn2c(=O)c3cc(C(=O)NCc4ccco4)c(=N)n(C4CCCCC4)c3nc12
Second: CCC(C)NC(=O)c1cc2c(=O)n3cccc(C)c3nc2n1C (centres unmarked)
The “% Inhibition @ 10 uM” value of the first is lower: 0.279% for the first, 5.09% for the second.

First: Fc1cccc(Cl)c1Cc1nnc(-c2ccccc2)o1
Second: CNc1oc(-c2ccc(Cl)cc2Cl)nc1S(=O)(=O)c1ccccc1
The “% Inhibition @ 10 uM” value of the first is higher: 2.5% for the first, -3.69% for the second.

Going from `O=Cc1cc(Br)ccc1OCc1c(F)cccc1Cl` to `CCOc1ccc(C(=O)Nc2cccc(Cl)c2)cc1`, the “% Inhibition @ 10 uM” value falls from 3.25% to 2.43%.

Going from `O=C(c1cnn(-c2ccccc2)c1-n1cccc1)N1CCCC(C(=O)N2CCOCC2)C1` (centres unmarked) to `Cc1ccc(C(=O)N/C(=C\c2ccco2)C(=O)N2CCCCCCC2)cc1C`, the “% Inhibition @ 10 uM” value falls from 4.95% to -2.88%.

First: CC(CNC(=O)Cn1ncn2cccc2c1=O)c1ccccc1 (centres unmarked)
Second: CC1CCCC(NC(=O)C(NS(=O)(=O)c2cccc3nsnc23)c2ccccc2)C1C (centres unmarked)
The “% Inhibition @ 10 uM” value of the first is lower: -8.77% for the first, -3.23% for the second.

First: COc1ccc(C(=O)CCNCCC(=O)O)cc1
Second: COc1ccc(CNC(=O)C2CC(=O)N(CCC(C)C)C2)cc1 (centres unmarked)
The “% Inhibition @ 10 uM” value of the first is higher: 30.1% for the first, 3.66% for the second.

First: CC(C)NC(=O)C1CCCN(S(=O)(=O)c2ccc(F)cc2)C1 (centres unmarked)
Second: Nc1nc(CN2CCCCCC2)nc(Nc2ccc(F)cc2)n1
The “% Inhibition @ 10 uM” value of the first is higher: 3.66% for the first, -6.66% for the second.

First: Cc1cc(=O)n2nc(N(C)CC(=O)N3CCOCC3)sc2n1
Second: Cc1ccc2oc(=O)c3cc(C(=O)N4CCC5(CC4)OCCO5)sc3c2c1
The “% Inhibition @ 10 uM” value of the first is higher: 6.06% for the first, 1.66% for the second.

Compared with `COc1ccc(OCc2ccc(C(=O)N3N=C(C)CC3(O)C(F)(F)F)cc2)cc1` (centres unmarked), `C=CCOc1ccc(C(=O)N(Cc2ccc(OC)cc2)C2CCS(=O)(=O)C2)cc1` (centres unmarked) is lower in “% Inhibition @ 10 uM” value: 5.61% for the first, -4.85% for the second.

First: Cc1ccc2[nH]cc(CC(C)N)c2c1 (centres unmarked)
Second: CCc1nc(N=C(N)N)nc2ccccc12
The “% Inhibition @ 10 uM” value of the first is higher: 0.279% for the first, -4.58% for the second.

Going from `CCS(=O)(=O)C1=NSC2=NC(=O)/C(=C\c3ccc(O)c(OC)c3)C(=N)N21` to `COc1ccc(NC(=O)c2nc3nc(-c4cccs4)cc(C(F)(F)F)n3n2)c(OC)c1`, the “% Inhibition @ 10 uM” value rises from 1.85% to 14.4%.

Compared with `CCOc1ccc(Cl)cc1S(=O)(=O)N1CC(C)OC(C)C1` (centres unmarked), `Cc1nn(C)c(C(=O)Nc2cnn(Cc3ccc(Cl)cc3Cl)c2)c1Br` is higher in “% Inhibition @ 10 uM” value: -6.44% for the first, -4.21% for the second.

First: CC(C)OC(=O)NC1c2ccccc2CSc2ccccc21 (centres unmarked)
Second: CCN(CC)C(=O)c1ccc(COc2cccc3ccccc23)o1
The “% Inhibition @ 10 uM” value of the first is lower: -5.35% for the first, -3.13% for the second.

Going from `CCOC(=O)c1c(NC(=O)c2cc(=O)c3cc(C)c(C)cc3o2)sc2c1CCCC2` to `CCOC(=O)c1[nH]c2sc(C)c(C)c2c1N`, the “% Inhibition @ 10 uM” value rises from -3.24% to -3.08%.

First: N#C/C(=C\c1cccc2ccccc12)c1nc(C2CC2)cs1
Second: CC(=O)/C(=C\Nc1nc(C)c(Br)c(C)n1)C(=O)Nc1ccccc1
The “% Inhibition @ 10 uM” value of the first is higher: -2.51% for the first, -4.12% for the second.

Compared with `CCc1c(C)nc(SCC(N)=O)c(C#N)c1C`, `Cn1c(=O)[nH]c(=O)c2c1nc(N=Nc1c(O)[nH]c3ccc(Br)cc13)n2CC(O)CO` (centres unmarked) is higher in “% Inhibition @ 10 uM” value: -2.44% for the first, 8.01% for the second.
